Source: PubChem BioAssay AID1159614 (National Center for Advancing Translational Sciences (NCATS), 2016)
About 65 (0.1%) of roughly 45,000 compounds were called active. Calls come from the whole dose curve; as a rule, active = well fitted activation curve with a large enough effect; inconclusive = small, poorly fitted or top-dose-only effect; inactive = no such curve, though single readings can be large or run the other way. The list shows a part of the results.

Target: Galactocerebrosidase (Homo sapiens) (UniProt P54803)
Assay: A Novel Cell-Based Assay to Identify Small Molecules for B -Galactocerebrosidase; note: 0% is about no effect; nearly all actives have a fitted effect of over 65% in size
Conditions: 145M-Twi-hGALC-G270D cells, HMU-beta-Gal fluorescence, 48 h; series mostly up to 57.5 µM; activation: at the top concentration
Summary of the method: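 qHTS, 1536-well; 145M-Twi-hGALC-G270D cells (WT line also made) in DMEM/F12 + 10% FBS; compound incubation on live cells; HMU-β-gal 0.1 mM final, pH 5.2, NaTC; carbonate stop; fluorescence increase = enhanced residual activity.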

Sequence of UniProt P54803 (P54803 whole entry, looked up): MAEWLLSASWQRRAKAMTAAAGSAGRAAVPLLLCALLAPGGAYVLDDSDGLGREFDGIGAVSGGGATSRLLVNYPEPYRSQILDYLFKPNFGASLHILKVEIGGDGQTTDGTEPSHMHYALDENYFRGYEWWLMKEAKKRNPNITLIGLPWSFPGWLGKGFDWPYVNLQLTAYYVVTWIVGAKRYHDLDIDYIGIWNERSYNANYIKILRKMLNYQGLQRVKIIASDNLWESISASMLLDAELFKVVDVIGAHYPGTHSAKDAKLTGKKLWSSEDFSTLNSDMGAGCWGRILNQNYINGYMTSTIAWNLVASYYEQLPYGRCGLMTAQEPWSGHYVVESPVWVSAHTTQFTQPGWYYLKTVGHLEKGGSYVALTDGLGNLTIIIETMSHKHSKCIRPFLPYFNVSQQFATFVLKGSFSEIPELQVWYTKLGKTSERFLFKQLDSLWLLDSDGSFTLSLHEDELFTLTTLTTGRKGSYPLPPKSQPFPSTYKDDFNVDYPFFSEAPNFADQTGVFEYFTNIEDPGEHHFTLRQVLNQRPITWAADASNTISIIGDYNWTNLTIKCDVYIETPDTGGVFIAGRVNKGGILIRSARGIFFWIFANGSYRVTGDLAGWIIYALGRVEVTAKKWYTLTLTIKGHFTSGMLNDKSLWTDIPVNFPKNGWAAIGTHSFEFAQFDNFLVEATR

activation, inactive:
CCn1nc(C)c2c(-c3ccccc3)cc(=O)n(C(C)C(=O)Nc3ccc(OC)c(OC)c3)c21 (stereo unspecified) -16.9%
Cc1cccc(NC(=O)Nc2cccs2)c1C 2.36%
CO[C@@]1(NC(=O)C(C(=O)O)c2ccc(O)cc2)C(=O)N2C(C(=O)O)=C(CSc3nnnn3C)CO[C@@H]21 (stereo partly specified) -10.7%
CCOC(=O)c1ccccc1NC(=O)CN(c1ccccc1)S(=O)(=O)c1ccc(OCC)cc1 -12.2%
COc1ccc(-c2cc(C(F)(F)F)n3nc(C)c(-c4ccccc4)c3n2)cc1OC -10.7%
O=C(CCc1cn(Cc2ccc(F)cc2)c2ccccc12)NC1CCCCC1 0.718%
N#C/C(=C\c1ccc(O)cc1)C(=O)NCC1CCCO1 (stereo unspecified) 12.2%
CC1=C(c2ccc(C)c(C)c2)S(=O)(=O)N(Cc2ccc(C(=O)NCc3ccccc3F)cc2)C1=O -25.4%
Cc1cc(C)cc(NC(=O)Cn2nnc(-c3ccccc3F)n2)c1 -8.34%
CCOC(=O)c1c(Nc2ccc(C)c(C)c2)nnc(-c2ccccc2)c1-c1ccccc1 -44%
Cc1ccc(C)c(OCC(=O)Nc2sc3c(c2C#N)CCCC3)c1C -3.61%
CCC1CCCCN1CCCNC(=O)c1ccc2c(c1)c(C)c(C)n2CC (stereo unspecified) 2.78%
CCCC(=O)Nc1cc2nn(-c3ccc(OC)cc3)nc2cc1C -0.448%
O=C(NCCc1ccccc1)c1c[nH]c2ccc(S(=O)(=O)Nc3ccc(F)cc3F)cc2c1=O -16.7%
CCOc1ccc(NC(=O)NCCN2CCN(c3cc(Cl)ccc3C)CC2)cc1 -21.6%
CCc1ccc(C(=O)c2cn(CC(=O)NCCc3ccccc3)c3nc(C)ccc3c2=O)cc1 -11%
COc1cccc(NC(=O)C2CCCN(c3ncnc4onc(-c5ccc(F)cc5)c34)C2)c1 (stereo unspecified) -10.3%
Cc1cc(C)c(NC(=O)Cn2c(=O)n(CCC(C)C)c(=O)c3cccnc32)c(C)c1 -11.8%
COc1ccc(-c2nn(C)c3sc(C(=O)NCCN(C)C)cc23)cc1OC -15.5%
COc1ccc(CNC(=O)CN2N=C(c3ccc(Cl)cc3)CCC2=O)cc1 -12.3%
Cc1ccc(C2=Nc3ccccc3N=C(c3ccc(F)cc3)C2)c(O)c1 -11.7%
CCN(c1ccccc1C)S(=O)(=O)c1nnc(NC(=O)c2ccc(OC)c(OC)c2)s1 -13.3%
O=C(NCCSc1c[nH]c2ccccc12)c1ccc(Cl)cc1 -14.8%
O=C(NCCc1ccccc1)c1ccc2c(c1)N(Cc1ccc(Cl)cc1)C(=O)c1ccccc1S2(=O)=O -8.67%
COc1ccc(Cn2c(SCc3ccc(C(=O)NCc4ccc(C)cc4)cc3)nc3cccnc32)cc1 -7.17%
Cc1ccc(N2CC(NC(=O)CCCc3ccccc3)CC2=O)cc1 (stereo unspecified) -0.968%
O=C(Cn1nc(Cc2cccnc2)c2ccccc2c1=O)N1CCN(c2ccccc2F)CC1 -6.99%
Cc1ccc(Cl)cc1N1CCN(c2nc3ccc(C(=O)c4ccccc4)cc3n3cnnc23)CC1 -7.11%
COc1ccc(CNC(=O)c2ccc(CN3C(=O)C(C)=C(c4ccc(C)cc4)S3(=O)=O)cc2)cc1 -7.88%
CCc1nc(SC)ncc1C(=O)NCc1cccc(Br)c1 -8.36%
CC(=O)Nc1ccc(NS(=O)(=O)c2c(C(=O)N3CCCCCC3)c(C)n(C)c2C)cc1 -17%
Cc1ccccc1OCC(=O)Nc1ccc(S(=O)(=O)N(Cc2ccccc2)c2ccccc2)cc1 -13%
COC(=O)c1ccc(NC(=O)c2cc(S(=O)(=O)N3CCOCC3)cn2C)cc1 -11.3%
COc1ccc(CCNC(=O)CSc2cn(CCNC(=O)c3c(F)cccc3F)c3ccccc23)cc1OC -14.2%
CN(C)c1ccc(NC(=O)Cn2c(SCc3ccc(F)cc3)nc3ccncc32)cc1 -0.265%
Cc1ccc(-n2ncc(C(=O)NCc3ccc4c(c3)OCO4)c2C2CCN(C(=O)OC(C)(C)C)CC2)c(C)c1 17.4%
Cc1oc2cc3oc(=O)c(CCC(=O)NCCc4ccccc4F)c(C)c3cc2c1C 19%
Cc1ccc(OCCSc2nnc(-c3cccs3)o2)cc1 -1.63%
COc1ccc(-c2nc3c(c(SCc4ccc(Br)cc4)n2)Cc2c(CO)cnc(C)c2O3)cc1 -3.07%
Cc1ccc(C(=O)COC(=O)CCC(=O)Nc2ccc(Oc3ccccc3)cc2)cc1 -10%
COc1ccc(Cn2c(=O)c3oc4ccccc4c3n(CC(=O)Nc3c(C)cccc3C)c2=O)cc1 -14.4%
Cc1ccc2c(c1)c1c(c(=O)n(-c3ccccc3)c(=O)n1Cc1ccccc1C)n2C 9.63%
Cc1cc(C)cc(N(CC(=O)NCCc2ccc(Cl)cc2)S(=O)(=O)c2c(C)noc2C)c1 -18.1%
COc1ccc(NC(=O)Nc2nnc(N3CCCC3)s2)cc1 -2.4%
CN1CCN(C(=O)c2cnn(-c3ccc(F)cc3F)c2C2CCN(C(=O)OC(C)(C)C)CC2)CC1 -7.84%
CCC(=O)N1c2ccccc2CC1C(=O)NCc1ccc(CC)cc1 (stereo unspecified) -15.3%
Cc1ccc2c(=O)cc(C(=O)N(Cc3ccc(C(C)(C)C)cc3)C3CCS(=O)(=O)C3)oc2c1 (stereo unspecified) -15.4%
CC(=O)c1ccc(S(=O)(=O)NC(=O)NC2CCCCC2)cc1 -7.79%
COc1ccc(Cn2ccc3nc(C)c(C(=O)NCc4ccc(SC)cc4)cc3c2=O)cc1 -17.7%
Cc1ccc(CNS(=O)(=O)c2cnc(N)nc2)cc1 -35.9%
Cc1ccccc1NC(=O)Cn1nc(-c2ccccc2)nc(Cc2ccccc2)c1=O -14.1%
O=C(c1cc2c(Cl)nc3ccccc3c2s1)N1CCCCC1 11.7%
COc1ccc(CNC(=O)CSc2nnc(C)c3c(C)n(-c4ccccc4)nc23)c(OC)c1 -16.9%
CCc1ccc2ncc3c(-c4ccc(C)cc4)nn(CC(=O)NCc4ccccc4)c3c2c1 -22.7%
CCOC(=O)c1sc2ncn(CC(=O)Nc3ccc(OC)c(Cl)c3)c(=O)c2c1C -8.76%
Cc1ccccc1Cn1c2ccccc2c2cnn(CC(=O)NC3CCCCCC3)c(=O)c21 -14.6%
COc1ccc(Br)cc1Cn1nnc(C(=O)Nc2cccc(SC)c2)c1N -12.3%
CC(C)CCNC(=O)Cn1nc(N2CCN(c3ccccc3)CC2)ccc1=O -10.8%
COc1ccc(-c2nc3sc(CCNC(=O)C(=O)Nc4ccc(OC)c(OC)c4)c(C)n3n2)cc1 -2.84%
O=C(CSc1nc2ccccc2n1Cc1cccc(F)c1)NCc1ccccc1 -1.62%
O=C(CC(c1cccs1)N1Cc2ccccc2C1=O)Nc1ccc(F)cc1 (stereo unspecified) -2.95%
CC(=O)c1cccc(NC(=O)CSc2ncc3c(n2)-c2cc(Cl)ccc2N(Cc2ccccc2)S3(=O)=O)c1 1.84%
COc1cc(CNC(=O)c2cc3n(n2)CCCN(Cc2cccc(F)c2)C3=O)cc(OC)c1OC -7.59%
CSc1cccc(NC(=O)c2cc3c(COC(C)=O)cnc(C)c3oc2=O)c1 -12.8%
COc1ccc(S(=O)(=O)NCc2nc(-c3ccccc3)no2)cc1 -3.68%
Cc1ccc(NC(=O)c2ccc(CN3CC(=O)N4CCCCC4C3=O)cc2)c(Cl)c1 (stereo unspecified) -34.4%
COc1ccc(OC)c(C2C(C(=O)Nc3ccc(C)cc3)=C(C)Nc3nnnn32)c1 (stereo unspecified) -8.22%
CN1CCN(C(=O)c2ccc3c(c2)N(Cc2ccc(C(F)(F)F)cc2)C(=O)c2ccccc2S3)CC1 -18.4%
CN(CC(=O)Nc1cccc(F)c1)S(=O)(=O)c1ccc2c(c1)n(C)c(=O)c(=O)n2C -7.23%
O=C(NCc1ccccc1F)C(=O)NCC(c1ccc2c(c1)OCO2)N1CCOCC1 (stereo unspecified) -5.29%
Nc1ncn([C@@H]2O[C@H](CO)[C@@H](O)[C@H]2O)c(=O)n1 -19.1%
Cc1ccc(-n2nc(C(=O)N3CCN(c4ccccc4F)CC3)c(=O)n(C)c2=O)cc1 -13.1%
CCCCCc1ccc(-c2ccc(Br)cc2)nc1 -13.7%
COc1ccc(CN(CCN(C)C)c2ccccn2)cc1 -7.51%
CC(=O)N1CCc2c(sc3c2c(=O)n(-c2ccccc2)c(=O)n3CC(=O)Nc2cc(C)cc(C)c2)C1 -5.26%
CCOc1ccc(CCNC(=O)c2c(C)oc3ncn(CC(C)C)c(=O)c23)cc1OCC -4.62%
CCCNC(C)C(=O)Nc1ccccc1C (stereo unspecified) -12.8%
CCc1ccc(NC(=O)CSc2nc(C)c(C(=O)Nc3ccccc3)c(-c3ccc(OC)c(OC)c3)c2C#N)cc1 -16.8%
Cc1cc(Br)ccc1NC(=O)CSc1c2c(nc3ccccc13)CCC2 -4.86%
COc1ccccc1N1CCN(c2ccc(=O)n(CC(=O)NCc3ccc(F)cc3)n2)CC1 3.54%
COc1ccc(NC(=O)c2cc3cc(C)ccc3[nH]2)cc1 -28.2%
CCOc1ccccc1NC(=O)CSc1nc2c(oc3ccccc32)c(=O)n1-c1ccc(F)cc1 -15%
COc1cccc(CSc2nc3n(n2)C(c2ccc(C(=O)O)cc2)C(C(=O)Nc2ccccc2)=C(C)N3)c1 (stereo unspecified) -16.1%
O=C(OCc1cc(=O)n2nc(-c3cccs3)sc2n1)c1ccccc1Cl -12.7%
CC(C)(C)C(=O)CSc1nc2ccsc2c(=O)n1Cc1ccccc1Cl -11.3%
CSc1ccc(CCNC(=O)c2cc(C)nc3c2c(C)nn3-c2cccc(F)c2)cc1 -0.513%
Cc1c(C(=O)N2CCCCCC2)c(S(=O)(=O)NCc2ccccc2)c(C)n1C -10.9%
CSc1ccccc1-c1nnc(NC(=O)c2ccc3c(c2)OCCO3)o1 -11.2%
CC(CNC(=O)c1cnn(-c2ccc(F)cc2)c1-n1cccc1)c1ccccc1 (stereo unspecified) -26.8%
Cc1ccc2nc(SCc3nc(-c4ccc(Cl)cc4)no3)[nH]c2c1 -15.7%
CC(=O)Nc1ccccc1-c1nc2ccccc2n(CC(=O)Nc2cccc(C)c2C)c1=O 1.04%
O=C(CSc1nc(=O)n(CCN2CCOCC2)c2c1CCC2)Nc1ccc(Cl)c(Cl)c1 -12.8%
O=C(Nc1ccc(F)c(Cl)c1)Nc1c[nH]c(=O)[nH]c1=O -10.4%
COc1ccc(C2CC(=O)N(Cc3ccc(C)cc3)c3c2c(C)nn3-c2nc(C)cc(C)n2)c(OC)c1 (stereo unspecified) -14.1%
Cc1cccc2nc(-c3ccccn3)c(Nc3ccc(F)cc3)n12 -11.6%
Cc1cc2c(cc1S(=O)(=O)Nc1cccc(Cl)c1C)n(C)c(=O)c(=O)n2C -4.78%
